The list shows a part of the results. The list includes weakly bound sequences.
target: MaxL homodimer (UniProt P61244); assay: universal protein-binding microarray (PBM); conditions: PBS-based mixture, 10 nM His-tagged protein dimer, 2% milk, 200 ng/uL BSA, 50 ng/uL salmon testes DNA, 0.02% TX-100; detection with Alexa 488 anti-His …; high values mean tight binding; most listed sequences are background and not binding sites; double strand, one strand shown
UniProt P61244, sequence (P61244 whole entry): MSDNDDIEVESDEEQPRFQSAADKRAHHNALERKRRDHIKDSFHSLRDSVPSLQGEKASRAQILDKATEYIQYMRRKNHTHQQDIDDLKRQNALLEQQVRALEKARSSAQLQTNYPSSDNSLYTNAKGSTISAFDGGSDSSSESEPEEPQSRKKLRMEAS

Row | Sequence | binding signal (normalized occupancy)
1 | TAGGCAAA | 0.0686
2 | CGCAAAAA | 0.0714
3 | CGTAGCTC | 0.0766
4 | AAACAACA | 0.0764
5 | GGCTAGCC | 0.0611
6 | CCGATGAA | 0.076
7 | GGCTCCAC | 0.0745
8 | CCAGATAG | 0.0774
9 | ACGCACTG | 0.0765
10 | AATTTGCA | 0.0748
11 | AGGGCCGA | 0.0672
12 | GACCGCTA | 0.0698
13 | AAGCCCCA | 0.0742
14 | ACGTTCAG | 0.0748
15 | TACGAGCA | 0.0799
16 | ACGTGCTG | 0.0935
17 | CATGAAGA | 0.0792
18 | CTACGGCA | 0.0744
19 | ATTAAGCA | 0.0819
20 | CATTGACA | 0.0829
21 | AAATTGGT | 0.0762
22 | GCTCACCC | 0.0746
23 | AACTGTCG | 0.0706
24 | CGCCTTTA | 0.0671
25 | TGTTCCAA | 0.0711

Row | Sequence | binding signal (normalized occupancy)
26 | CGTAAAGA | 0.071
27 | CAGCTTTA | 0.0727
28 | CACAGAGG | 0.0754
29 | GGCAATTA | 0.0748
30 | AGAGGGAA | 0.0741
31 | ACGCATCC | 0.077
32 | GAGTTAGC | 0.0731
33 | AAATCGGT | 0.0734
34 | CCGAGGTA | 0.0723
35 | CATTTCCC | 0.0764
36 | GCCGGACA | 0.0727
37 | AAAATGGC | 0.0772
38 | GGGCACCC | 0.0691
39 | ATCTTCGA | 0.0761
40 | AGAATGCA | 0.0792
41 | CGGTACCG | 0.0713
42 | ACGGCGGC | 0.07
43 | CTAGGAAC | 0.0691
44 | CTAACTGC | 0.0701
45 | CACCTCCA | 0.0801
46 | ACCGGGTA | 0.0733
47 | CGAGTTAA | 0.0752
48 | TAGAGGCA | 0.0782
49 | GACACCTC | 0.0746
50 | CGCACATC | 0.0825

Row | Sequence | binding signal (normalized occupancy)
51 | CCCCAAAC | 0.077
52 | GCTAGTTA | 0.0769
53 | CTCACATC | 0.078
54 | ATTGGGCA | 0.0772
55 | AGGTAGAG | 0.0719
56 | TAGACTCA | 0.0729
57 | GTAAGTCA | 0.073
58 | ATTAACTG | 0.0763
59 | AGCTTCTG | 0.0664
60 | AACCTACC | 0.0763
61 | CTACACGA | 0.0821
62 | ATAGAATA | 0.0825
63 | CGGCTTGC | 0.0672
64 | AGGTGGCG | 0.0875
65 | AGGGCTCG | 0.0695
66 | CCAGGCCG | 0.0669
67 | CGGGTTAA | 0.0754
68 | GCAAATAA | 0.0767
69 | ATACCCCG | 0.0835
70 | GGGCCCCA | 0.0709
71 | CAGATGGA | 0.0847
72 | AACAGCTG | 0.0749
73 | AAAACTGT | 0.072
74 | AAGCGCAT | 0.0827
75 | ATCGGGTA | 0.0747

Row | Sequence | binding signal (normalized occupancy)
76 | GAATAGCA | 0.0818
77 | AATCTCAG | 0.075
78 | GCCCGTGA | 0.0751
79 | AGATTTCC | 0.0729
80 | ATCCCTGA | 0.0751
81 | ATAAACCC | 0.0807
82 | CAATGACC | 0.0777
83 | CCGATCGC | 0.0742
84 | ACAAGCGC | 0.0756
85 | AGATGACA | 0.0778
86 | AGTGAATC | 0.075
87 | AAGACTGC | 0.0693
88 | ACTATTGC | 0.0752
89 | TGACAAAA | 0.0791
90 | CTGCAACC | 0.0736
91 | AAACGAAC | 0.0725
92 | TCCCCGGA | 0.07
93 | GTCATAGA | 0.0813
94 | ACCTAGAC | 0.0731
95 | CCCGATGA | 0.0757
96 | ATATACAT | 0.0936
97 | CTTGCGCC | 0.0652
98 | CGCTCAGA | 0.071
99 | AGGCTTGC | 0.073
100 | AGAGTCAG | 0.075

Row | Sequence | binding signal (normalized occupancy)
101 | AATATCCG | 0.0716
102 | CGAGCGTA | 0.0731
103 | ACAGCCAT | 0.0785
104 | AATCATCC | 0.083
105 | CTGCGTGC | 0.0861
106 | AATACCTC | 0.0803
107 | GAAATTTA | 0.0725
108 | ATAAAATA | 0.0781
109 | AGAACTAC | 0.0732
110 | AATGAGCA | 0.0774
111 | CGGGACAC | 0.0758
112 | AAGGCATA | 0.0742
113 | CCTAGTAG | 0.0707
114 | AGCCAGAA | 0.0682
115 | CATTTCGC | 0.0777
116 | GCGGTGCC | 0.0695
117 | AACCATAG | 0.0719
118 | CTTATTCC | 0.0719
119 | CTAAGGTA | 0.0767
120 | ATTGAAGG | 0.0752
121 | ACGAGTCA | 0.0784
122 | TCCTCGCA | 0.0758
123 | GATGGGAC | 0.0803
124 | CACCCCCC | 0.0915
125 | CATCTAAG | 0.0744

Row | Sequence | binding signal (normalized occupancy)
126 | CTTAGACA | 0.0749
127 | GTGGATAA | 0.0854
128 | ATCTCTTC | 0.0747
129 | ACCGGCGT | 0.0721
130 | ACGGCACC | 0.0742
131 | AGGTCCAC | 0.072
132 | GGAAGCAC | 0.0773
133 | CATCCTCA | 0.0798
134 | AAGAACAC | 0.081
135 | ATGTCTAA | 0.0759
136 | GATCCGTA | 0.074
137 | ACAGATCG | 0.0762
138 | ACCTGTGA | 0.078
139 | ACCTAATG | 0.079
140 | GCAGTCCA | 0.0742
141 | TTCATAAA | 0.0768
142 | CCTCTGCA | 0.0733
143 | CTCTATAA | 0.0752
144 | AGCAGACG | 0.0672
145 | AATATTCT | 0.0794
146 | ATTTTACA | 0.0835
147 | GAGCTATC | 0.0729
148 | TCGGCCCA | 0.0708
149 | CTATCTTC | 0.0773
150 | GCTGCACC | 0.0701

Row | Sequence | binding signal (normalized occupancy)
151 | CTTCCAAA | 0.0767
152 | AAAGTCGG | 0.0675
153 | AACCCCCA | 0.0788
154 | AGCATTGG | 0.0776
155 | GGCTATGA | 0.0759
156 | TTAGATAA | 0.08
157 | ACCGCGCG | 0.0856
158 | ATAACGCA | 0.0837
159 | ACTTTCAG | 0.0708
160 | GTGATATA | 0.0854
161 | CCGGCCCA | 0.0718
162 | GGGCGACC | 0.0695
163 | CGCCTAAG | 0.0691
164 | AAGTAATT | 0.0716
165 | CACTCGGA | 0.0735
166 | GTCCGAGA | 0.0697
167 | ATAACTGA | 0.0776
168 | ACGGTAAA | 0.0764
169 | AATACTTA | 0.0757
170 | CCTTTCTA | 0.0811
171 | ATGCCAGA | 0.0794
172 | AGCTACAA | 0.0722

Reference: article PMC4242493
